65 variants from the supplement of paper PMC11876631 can be followed below.

± gives the standard deviation of the averaged measurements. Laboratory Escherichia coli strains with one amino-acid change in an essential protein, pooled on minimal glucose agar with carbenicillin or gentamicin at twice the control MIC (plus kanamycin and chloramphenicol for the plasmids), 48 h. Fold change of barcode share against drug-free plates; higher = less susceptible. Active = above 20 in both replicates (the paper's putatively resistant). '<' = one read or none on drug, '>' = one read or none on a drug-free plate. Shares are relative, so most strains fall below 1 when a few take over. Listed are strains with at least 15 reads on both drug-free plates, and hits; most hits rest on fewer reference reads. Replicate rank correlation about 0.5. Edits are read from barcodes. Where only a bound is given, the exact number is not on record here.

The labels stand for the following.
B1: thrB; numbered along this chain (parent)
chain: MVKVYAPASSANMSVGFDVLGAAVTPVDGALLGDVVTVEAAETFSLNNLGRFADKLPSEPRENIVYQCWERFCQELGKQIPVAMTLEKNMPIGSGLGSSACSVVAALMAMNEHCGKPLNDTRLLALMGELEGRISGSIHYDNVAPCFLGGMQLMIEENDIISQQVPGFDEWLWVLAYPGIKVSTAEARAILPAQYRRQDCIAHGRHLAGFIHACYSRQPELAAKLMKDVIAEPYRERLLPGFRQARQAVAEIGAVASGISGSGPTLFALCDKPETAQRVADWLGKNYLQNQEGFVHICRLDTAGARVLEN
B2: pdxJ; numbered along this chain (parent)
chain: MAELLLGVNIDHIATLRNARGTAYPDPVQAAFIAEQAGADGITVHLREDRRHITDRDVRILRQTLDTRMNLEMAVTEEMLAIAVETKPHFCCLVPEKRQEVTTEGGLDVAGQRDKMRDACKRLADAGIQVSLFIDADEEQIKAAAEVGAPFIEIHTGCYADAKTDAEQAQELARIAKAATFAASLGLKVNAGHGLTYHNVKAIAAIPEMHELNIGHAIIGRAVMTGLKDAVAEMKRLMLEARG
B3: bioC; numbered along this chain (parent)
chain: MATVNKQAIAAAFGRAAAHYEQHADLQRQSADALLAMLPQRKYTHVLDAGCGPGWMSRHWRERHAQVTALDLSPPMLVQARQKDAADHYLAGDIESLPLATATFDLAWSNLAVQWCGNLSTALRELYRVVRPKGVVAFTTLVQGSLPELHQAWQAVDERPHANRFLPPDEIEQSLNGVHYQHHIQPITLWFDDALSAMRSLKGIGATHLHEGRDPRILTRSQLQRLQLAWPQQQGRYPLTYHLFLGVIARE

Variants of B1 are the subject of one data set. Kind of data set: barcode share on antibiotic plates over drug-free plates; higher = less susceptible. Conditions: with Escherichia coli (laboratory strain); antibiotic: carbenicillin; 2× MIC (3.1 µg/mL). Here is the method: (§1)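 A pool of E. coli strains, each edited to carry one amino-acid change in an essential protein, was grown for 48 h on minimal glucose agar with or without antibiotic; strain barcodes were sequenced; mean of two replicates.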
On to M108Q, for which the “fold change of barcode share” value was 1 ± 0.071.
With L107W, the “fold change of barcode share” value was determined as 0.837 ± 0.14.
On the same count and under the same terms, to L107P belongs 1.39 ± 0.21; to L107A, 0.756 ± 0.17.
The same measure, in the same setting: to L107Q belongs 1.0315 ± 0.00058; to V295A, 0.393 ± 0.22; to V104W, 17.6 ± 10.
As to V104A, the “fold change of barcode share” value worked out at 0.759 ± 0.034.
Turning to V104Q, the “fold change of barcode share” value turned out to be 18.1 ± 13.
As for V104D, the “fold change of barcode share” value was 11 ± 2.1.
Turning to V104P, the “fold change of barcode share” value amounted to 15.9 ± 8.2.
With I297A, the “fold change of barcode share” value came to 1.15 ± 1.1.
Same read-out and setting: to I297P belongs 0.438 ± 0.31.
Turning to I297W, the “fold change of barcode share” value came out at 0.763 ± 0.14.
Regarding L20D, the “fold change of barcode share” value was > 55.8 [active].
Take L20A: the “fold change of barcode share” value is 1.22 ± 0.21.
Take L20W: the “fold change of barcode share” value is 1.3996 ± 0.00019.
For L20Q, the “fold change of barcode share” value came to 5.07 ± 1.9.
Still for that read-out and setting: the figure for F267A is 0.585 ± 0.091.
In the case of F267Q, the “fold change of barcode share” value came out at 0.866 ± 0.26.
For F267W, the “fold change of barcode share” value amounted to 0.642 ± 0.32.

The data set is the same for the next values; noted with them: with Escherichia coli (laboratory strain); antibiotic: gentamicin; 2× MIC (MIC 0.45 µg/mL).
Take M108Q: the “fold change of barcode share” value stood at 0.012 ± 0.0024.
For L107W, the “fold change of barcode share” value was determined as 0.0354 ± 0.043.
For the variant L107P, the “fold change of barcode share” value came to 0.0144 ± 0.0066.
L107A: the “fold change of barcode share” value was determined as 0.00859 ± 0.0036.
Take L107Q: the “fold change of barcode share” value was 0.0168 ± 0.015.
With V104A, the “fold change of barcode share” value was 0.0203 ± 0.016.
The same measure, in the same setting: to I297A belongs 0.0201 ± 0.011.
The same measure, in the same setting: the figure for I297P is < 0.0185; for L20A it is 0.0269 ± 0.015.
Regarding L20W, the “fold change of barcode share” value was found to be 0.232 ± 0.27.
Same read-out and setting: to F267A belongs 0.00808 ± 0.0049.
For F267Q, the “fold change of barcode share” value was determined as 0.00736 ± 0.0013.
As to F267W, the “fold change of barcode share” value came to 0.012 ± 0.0057.

Variants of B2 are the subject of another data set. The description is as above. Conditions: with Escherichia coli (laboratory strain); antibiotic: carbenicillin; 2× MIC (3.1 µg/mL). How it is done:
as §1
As to V28W, the “fold change of barcode share” value was 0.248 ± 0.14.
As to V28A, the “fold change of barcode share” value is 0.258 ± 0.048.
As to V28P, the “fold change of barcode share” value was found to be 0.547 ± 0.051.
As for V28Q, the “fold change of barcode share” value worked out at 0.354 ± 0.044.
On the same count and under the same terms, to V94Q belongs > 40.7 [active]; to V94A, 1.63 ± 1.1.
For V94P, the “fold change of barcode share” value is > 28.2 [active].
On the same count and under the same terms, to L93W belongs 0.273 ± 0.036; to L93A, 0.308 ± 0.077.
On to F32A, for which the “fold change of barcode share” value was 0.194 ± 0.14.
On the same count and under the same terms, the figure for F32W is 0.283 ± 0.3; for F32P it is 0.268 ± 0.051.
Turning to F32D, the “fold change of barcode share” value came out at 0.327 ± 0.2.
With F32Q, the “fold change of barcode share” value amounted to 0.328 ± 0.17.
Turning to I152W, the “fold change of barcode share” value stood at 0.473 ± 0.34.
As to I152A, the “fold change of barcode share” value came out at 0.303 ± 0.06.
On to M73D, for which the “fold change of barcode share” value was > 30.1 [active].
For M73Q, the “fold change of barcode share” value amounted to 0.467 ± 0.01.
Turning to I42Q, the “fold change of barcode share” value was > 28.5 [active].

Still in this data set, the particulars now being: with Escherichia coli (laboratory strain); antibiotic: gentamicin; 2× MIC (MIC 0.45 µg/mL).
For the variant V28W, the “fold change of barcode share” value is 0.00374 ± 0.0011.
Regarding V28A, the “fold change of barcode share” value is < 0.00174.
Still for that read-out and setting: the figure for V28P is 0.00721 ± 0.0016.
As to V28Q, the “fold change of barcode share” value was found to be 0.00851 ± 0.0007.
On to L93W, for which the “fold change of barcode share” value was < 0.00553.
With L93A, the “fold change of barcode share” value stood at 0.472 ± 0.64.
As to F32A, the “fold change of barcode share” value was < 0.00689.
The same measure, in the same setting: the figure for F32W is 0.00907 ± 0.0053; for F32P it is < 0.00546; for F32D it is < 0.00384.
The same measure, in the same setting: the figure for F32Q is < 0.00803; for I152W it is < 0.02.
With I152A, the “fold change of barcode share” value came out at 0.0117 ± 0.0001.
As for M73A, the “fold change of barcode share” value was 0.00604 ± 0.0043.

A further data set covers variants of B3. Described as above. Conditions: with Escherichia coli (laboratory strain); antibiotic: carbenicillin; 2× MIC (3.1 µg/mL). Here is the method:
as §1
For F138D, the “fold change of barcode share” value is 0.751 ± 0.088.
L149D: the “fold change of barcode share” value amounted to 0.758 ± 0.34.
As to L149W, the “fold change of barcode share” value was found to be 0.79176 ± 0.00067.
On to L149Q, for which the “fold change of barcode share” value came out at 0.622 ± 0.031.
On the same count and under the same terms, the figure for V136W is 0.664 ± 0.34; for V136Q it is 0.461 ± 0.02.
In the case of V136D, the “fold change of barcode share” value came out at 0.9968 ± 0.0092.
For V136P, the “fold change of barcode share” value amounted to 0.617 ± 0.23.
Take L245A: the “fold change of barcode share” value is 0.181 ± 0.11.
As to W190A, the “fold change of barcode share” value was found to be 0.441 ± 0.11.
Consider W190Q, for which the “fold change of barcode share” value is 0.478 ± 0.26.
Turning to W190P, the “fold change of barcode share” value turned out to be 0.265 ± 0.062.
L126Q: the “fold change of barcode share” value was determined as 0.535 ± 0.015.
Regarding L126A, the “fold change of barcode share” value came out at 0.452 ± 0.011.
Regarding L126P, the “fold change of barcode share” value stood at 0.591 ± 0.063.
Regarding L126D, the “fold change of barcode share” value was 0.5811 ± 0.0013.
For L126W, the “fold change of barcode share” value was found to be 0.423 ± 0.025.
On the same count and under the same terms, the figure for L35P is 0.518 ± 0.0022; for L35Q it is 0.469 ± 0.0077.
With L35D, the “fold change of barcode share” value was 0.4904 ± 0.0018.
In the case of L35A, the “fold change of barcode share” value is 0.346 ± 0.084.

Still in this data set, the particulars now being: with Escherichia coli (laboratory strain); antibiotic: gentamicin; 2× MIC (MIC 0.45 µg/mL).
On to F138D, for which the “fold change of barcode share” value was 0.0186 ± 0.0029.
On the same count and under the same terms, the figure for L149P is < 0.00935; for L149D it is 0.0155 ± 0.016.
In the case of L149W, the “fold change of barcode share” value stood at 0.0163 ± 0.0072.
In the case of L149Q, the “fold change of barcode share” value was found to be 0.00502 ± 0.0017.
In the case of V136Q, the “fold change of barcode share” value was < 0.0133.
On the same count and under the same terms, the figure for V136D is < 0.015.
Same read-out and setting: the figure for V136P is < 0.0157; for L245P it is 0.25 ± 0.33.
As for L245A, the “fold change of barcode share” value is < 0.00776.
On to W190A, for which the “fold change of barcode share” value amounted to 0.00887 ± 0.0058.
For W190D, the “fold change of barcode share” value stood at 0.00786 ± 0.0062.
On to W190Q, for which the “fold change of barcode share” value is < 0.00577.
W190P: the “fold change of barcode share” value is < 0.00464.
Regarding L126Q, the “fold change of barcode share” value came out at 0.00498 ± 0.00032.
For L126A, the “fold change of barcode share” value turned out to be 0.00939 ± 0.0024.
The same measure, in the same setting: the figure for L126P is 0.017 ± 0.01.
In the case of L126D, the “fold change of barcode share” value is 0.0148 ± 0.0067.
As for L126W, the “fold change of barcode share” value came out at 0.00913 ± 0.0023.
Regarding L35P, the “fold change of barcode share” value was 0.0097 ± 0.0085.
On the same count and under the same terms, to L35Q belongs 0.00613 ± 0.0043; to L35D, 0.00911 ± 0.0046; to L35A, 0.00548 ± 0.0051.
